# In the supplement of paper PMC10037445:
# The full ranking holds about 2,900 compounds; the median of “NF-kB SEAP reporter activity, fold change vs agonist alone” is about 0.99, and the highest 2% start at about 2.6. The list shows a part of the results.
# Assays:
# RAW-Dual [1] = assay: NF-kB SEAP reporter activity, fold change vs agonist alone; cytotoxicity flag (confluency mask): not cytotoxic; higher = enhanced NF-kB activity
# Procedure, shortened: (§1)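 After 50 nL of library stock was delivered by pin tool to RAW-Dual macrophages (50,000 cells/well, DMEM, 384-well plates), a PRR agonist was added 1 h later and the plates were kept at 37 °C, 5% CO2. Twenty hours later, IRF was read from supernatant by QuantiLuc luminescence and NF-κB by QuantiBlue absorbance at 620 nm. Reporter activity is stated as fold change over agonist-alone wells. Wells with IncuCyte confluency under 70% of agonist controls in both mask sets were counted as cytotoxic.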
# RAW-Dual [2] = assay: NF-kB SEAP reporter activity, fold change vs agonist alone; higher = enhanced NF-kB activity; conditions: library stock concentration (final ~1000-fold dilution): 10 mM
# Procedure, shortened: as §1
# RAW-Dual [3] = assay: NF-kB SEAP reporter activity, fold change vs agonist alone; cytotoxicity flag (confluency mask): cytotoxic (confluency <70% of control); higher = enhanced NF-kB activity
# Procedure, shortened: as §1
# [4] = agonist: ODN 1826 (TLR9) 0.5 ug/mL
# [5] = agonist: Pam2CSK4 (TLR2/6) 0.1 ug/mL
# [6] = agonist: Pam3CSK4 (TLR2/1) 0.1 ug/mL
# [7] = cytotoxicity flag (confluency mask): not cytotoxic, agonist: Imiquimod (TLR7) […]
# [8] = cytotoxicity flag (confluency mask): not cytotoxic, agonist: MPLA (TLR4) […]
structure (smiles),measurement,setting,value
CCCCCCC[n+]1ccc(-c2cc[n+](CCCCCCC)cc2)cc1 (library stock concentration (final ~1000-fold dilution): 10 mM),NF-kB SEAP reporter activity,RAW-Dual [1]; agonist: LPS (TLR4) 0.1 ug/mL,3.95
same,NF-kB SEAP reporter activity,RAW-Dual [1]; [4],1.17
same,NF-kB SEAP reporter activity,RAW-Dual [1]; [5],1.02
same,NF-kB SEAP reporter activity,RAW-Dual [1]; [6],1.14
CC(C)=CCOc1c2occc2cc2ccc(=O)oc12,NF-kB SEAP reporter activity,RAW-Dual [2]; [7],0.983
same,NF-kB SEAP reporter activity,RAW-Dual [2]; [8],1.15
CC(C)=CCOc1c2occc2cc2ccc(=O)oc12 (library stock concentration (final ~1000-fold dilution): 10 mM),NF-kB SEAP reporter activity,RAW-Dual [1]; agonist: LPS (TLR4) 0.1 ug/mL,1.19
same,NF-kB SEAP reporter activity,RAW-Dual [1]; [4],0.946
same,NF-kB SEAP reporter activity,RAW-Dual [1]; [5],0.977
same,NF-kB SEAP reporter activity,RAW-Dual [1]; [6],0.953
O=c1ccc2ccc3occc3c2o1 (library stock concentration (final ~1000-fold dilution): 10 mM),NF-kB SEAP reporter activity,RAW-Dual [1]; agonist: LPS (TLR4) 0.1 ug/mL,0.918
same,NF-kB SEAP reporter activity,RAW-Dual [1]; [4],0.845
same,NF-kB SEAP reporter activity,RAW-Dual [1]; [5],0.881
same,NF-kB SEAP reporter activity,RAW-Dual [1]; [6],1.02
O=c1ccc2ccc3occc3c2o1,NF-kB SEAP reporter activity,RAW-Dual [2]; [7],0.823
same,NF-kB SEAP reporter activity,RAW-Dual [2]; [8],0.995
COc1ccc(/C=C/c2cc(OC)cc(OC)c2)cc1,NF-kB SEAP reporter activity,RAW-Dual [2]; [7],0.911
same,NF-kB SEAP reporter activity,RAW-Dual [2]; [8],1.25
COc1ccc(/C=C/c2cc(OC)cc(OC)c2)cc1 (library stock concentration (final ~1000-fold dilution): 10 mM),NF-kB SEAP reporter activity,RAW-Dual [1]; agonist: LPS (TLR4) 0.1 ug/mL,1.35
same,NF-kB SEAP reporter activity,RAW-Dual [1]; [4],1.03
same,NF-kB SEAP reporter activity,RAW-Dual [1]; [5],0.767
same,NF-kB SEAP reporter activity,RAW-Dual [1]; [6],0.815
CC12CCC3C(CCC4=C(O)C(=O)CCC43C)C1CCC2=O (configuration not stated) (library stock concentration (final ~1000-fold dilution): 10 mM),NF-kB SEAP reporter activity,RAW-Dual [1]; agonist: LPS (TLR4) 0.1 ug/mL,1.17
same,NF-kB SEAP reporter activity,RAW-Dual [1]; [4],1.21
same,NF-kB SEAP reporter activity,RAW-Dual [1]; [5],1.07
same,NF-kB SEAP reporter activity,RAW-Dual [1]; [6],1.23
CC12CCC3C(CCC4=C(O)C(=O)CCC43C)C1CCC2=O (configuration not stated),NF-kB SEAP reporter activity,RAW-Dual [2]; [7],0.986
same,NF-kB SEAP reporter activity,RAW-Dual [2]; [8],1.01
COc1cc(C)[nH]c(=O)c1CNC(=O)c1c(C)n(C(C)C2CCN(CC(F)(F)F)CC2)c2ccccc12 (configuration not stated) (library stock concentration (final ~1000-fold dilution): 10 mM),NF-kB SEAP reporter activity,RAW-Dual [1]; agonist: LPS (TLR4) 0.1 ug/mL,0.78
same,NF-kB SEAP reporter activity,RAW-Dual [1]; [4],0.953
same,NF-kB SEAP reporter activity,RAW-Dual [1]; [5],0.647
same,NF-kB SEAP reporter activity,RAW-Dual [1]; [6],0.74
COc1cc(C)[nH]c(=O)c1CNC(=O)c1c(C)n(C(C)C2CCN(CC(F)(F)F)CC2)c2ccccc12 (configuration not stated),NF-kB SEAP reporter activity,RAW-Dual [2]; [7],0.35
same,NF-kB SEAP reporter activity,RAW-Dual [2]; [8],0.914
CC1=C(O)C(=O)C=C2C1=CC=C1C2(C)CCC2(C)C3CC(C)(C(=O)O)CCC3(C)CCC12C (configuration not stated) (library stock concentration (final ~1000-fold dilution): 10 mM),NF-kB SEAP reporter activity,RAW-Dual [1]; agonist: LPS (TLR4) 0.1 ug/mL,0.287
same,NF-kB SEAP reporter activity,RAW-Dual [1]; [4],0.179
same,NF-kB SEAP reporter activity,RAW-Dual [1]; [5],0.297
same,NF-kB SEAP reporter activity,RAW-Dual [1]; [6],0.119
CC1=C(O)C(=O)C=C2C1=CC=C1C2(C)CCC2(C)C3CC(C)(C(=O)O)CCC3(C)CCC12C (configuration not stated),NF-kB SEAP reporter activity,RAW-Dual [2]; [7],0.191
same,NF-kB SEAP reporter activity,RAW-Dual [2]; [8],0.203
O=c1[nH]c2ccccc2n1CCCN1CCC(n2c(=O)[nH]c3cc(Cl)ccc32)CC1,NF-kB SEAP reporter activity,RAW-Dual [2]; [7],1.07
same,NF-kB SEAP reporter activity,RAW-Dual [2]; [8],1.04
O=c1[nH]c2ccccc2n1CCCN1CCC(n2c(=O)[nH]c3cc(Cl)ccc32)CC1 (library stock concentration (final ~1000-fold dilution): 10 mM),NF-kB SEAP reporter activity,RAW-Dual [1]; agonist: LPS (TLR4) 0.1 ug/mL,0.971
same,NF-kB SEAP reporter activity,RAW-Dual [1]; [4],0.2
same,NF-kB SEAP reporter activity,RAW-Dual [1]; [5],0.84
same,NF-kB SEAP reporter activity,RAW-Dual [1]; [6],1.06
CC(=O)OC(C)(C)/C=C/C(=O)C(C)(O)C1C(O)CC2(C)C3CC=C4C(CC(O)C(=O)C4(C)C)C3(C)C(=O)CC12C (configuration not stated),NF-kB SEAP reporter activity,RAW-Dual [2]; [7],0.752
same,NF-kB SEAP reporter activity,RAW-Dual [2]; [8],0.271
CC(=O)OC(C)(C)/C=C/C(=O)C(C)(O)C1C(O)CC2(C)C3CC=C4C(CC(O)C(=O)C4(C)C)C3(C)C(=O)CC12C (configuration not stated) (library stock concentration (final ~1000-fold dilution): 10 mM),NF-kB SEAP reporter activity,RAW-Dual [1]; agonist: LPS (TLR4) 0.1 ug/mL,0.218
same,NF-kB SEAP reporter activity,RAW-Dual [1]; [4],0.209
same,NF-kB SEAP reporter activity,RAW-Dual [1]; [5],0.103
same,NF-kB SEAP reporter activity,RAW-Dual [1]; [6],0.158
CC1CCCC(=O)CCC/C=C/c2cc(O)cc(O)c2C(=O)O1 (configuration not stated),NF-kB SEAP reporter activity,RAW-Dual [2]; [7],0.82
same,NF-kB SEAP reporter activity,RAW-Dual [2]; [8],1.36
CC1CCCC(=O)CCC/C=C/c2cc(O)cc(O)c2C(=O)O1 (configuration not stated) (library stock concentration (final ~1000-fold dilution): 10 mM),NF-kB SEAP reporter activity,RAW-Dual [1]; agonist: LPS (TLR4) 0.1 ug/mL,1.76
same,NF-kB SEAP reporter activity,RAW-Dual [1]; [4],0.856
same,NF-kB SEAP reporter activity,RAW-Dual [1]; [5],1.08
same,NF-kB SEAP reporter activity,RAW-Dual [1]; [6],1.24
c1ccc2c(c1)Sc1ccccc1N2CC1CN2CCC1CC2 (configuration not stated) (library stock concentration (final ~1000-fold dilution): 10 mM),NF-kB SEAP reporter activity,RAW-Dual [3]; agonist: LPS (TLR4) 0.1 ug/mL,0.854
same,NF-kB SEAP reporter activity,RAW-Dual [3]; [4],0.455
same,NF-kB SEAP reporter activity,RAW-Dual [3]; [5],0.794
same,NF-kB SEAP reporter activity,RAW-Dual [3]; [6],0.746
c1ccc2c(c1)Sc1ccccc1N2CC1CN2CCC1CC2 (configuration not stated),NF-kB SEAP reporter activity,"RAW-Dual [2]; cytotoxicity flag (confluency mask): cytotoxic (confluency <70% of control), agonist: Imiquimod (TLR7) […]",1.89
same,NF-kB SEAP reporter activity,"RAW-Dual [2]; cytotoxicity flag (confluency mask): cytotoxic (confluency <70% of control), agonist: MPLA (TLR4) […]",1.76
Cc1c(C(C)C2NCC(C)CC2O)ccc2c1CC1C2CC=C2CC(O)CCC21C (configuration not stated) (library stock concentration (final ~1000-fold dilution): 10 mM),NF-kB SEAP reporter activity,RAW-Dual [1]; agonist: LPS (TLR4) 0.1 ug/mL,1.1
same,NF-kB SEAP reporter activity,RAW-Dual [1]; [4],1.02
same,NF-kB SEAP reporter activity,RAW-Dual [1]; [5],0.866
same,NF-kB SEAP reporter activity,RAW-Dual [1]; [6],1.03
Cc1c(C(C)C2NCC(C)CC2O)ccc2c1CC1C2CC=C2CC(O)CCC21C (configuration not stated),NF-kB SEAP reporter activity,RAW-Dual [2]; [7],0.945
same,NF-kB SEAP reporter activity,RAW-Dual [2]; [8],1.15
CS(=O)(=O)c1ccc(C(=O)C2C(=O)CCCC2=O)c(Cl)c1 (library stock concentration (final ~1000-fold dilution): 10 mM),NF-kB SEAP reporter activity,RAW-Dual [1]; agonist: LPS (TLR4) 0.1 ug/mL,0.694
same,NF-kB SEAP reporter activity,RAW-Dual [1]; [4],0.826
same,NF-kB SEAP reporter activity,RAW-Dual [1]; [5],0.609
same,NF-kB SEAP reporter activity,RAW-Dual [1]; [6],0.667
CS(=O)(=O)c1ccc(C(=O)C2C(=O)CCCC2=O)c(Cl)c1,NF-kB SEAP reporter activity,RAW-Dual [2]; [7],1.07
same,NF-kB SEAP reporter activity,RAW-Dual [2]; [8],1.05
O=S(=O)(CC1CS1)c1ccc(Oc2ccccc2)cc1 (configuration not stated),NF-kB SEAP reporter activity,RAW-Dual [2]; [7],1.14
same,NF-kB SEAP reporter activity,RAW-Dual [2]; [8],1.92
O=S(=O)(CC1CS1)c1ccc(Oc2ccccc2)cc1 (configuration not stated) (library stock concentration (final ~1000-fold dilution): 10 mM),NF-kB SEAP reporter activity,RAW-Dual [1]; agonist: LPS (TLR4) 0.1 ug/mL,1.92
same,NF-kB SEAP reporter activity,RAW-Dual [1]; [4],1.22
same,NF-kB SEAP reporter activity,RAW-Dual [1]; [5],0.846
same,NF-kB SEAP reporter activity,RAW-Dual [1]; [6],0.906
